In the supplement of paper PMC4967469:
Lines with a small IC50 respond at low doses; a limit (>, <) means that the fit lies beyond the doses tested. AUC is the area under the same curve over the 256-fold range up to the top dose, as a fraction; it is 1 without any effect and falls as sensitivity rises. For some assays here: Any top dose called inferred is not printed in the source and was worked back from the curve model.

Experiments:
Test in all cases: Viability of human cancer cell lines after 72 h of drug (GDSC screen)
Sorafenib = compound: CNC(=O)c1cc(Oc2ccc(NC(=O)Nc3ccc(Cl)c(C(F)(F)F)c3)cc2)ccn1 [Sorafenib]; details: top dose 4 µM
Procedure: (§1)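 Human cancer cell lines in 384-well plates, medium with 10% serum, drug for 72 h over a 256-fold dose range (nine 2-fold or five 4-fold steps up to the top dose). Adherent lines were fixed and stained with the nucleic acid dye Syto60, suspension lines read with resazurin; signal relative to control wells, capped at 0 and 100%. One two-parameter sigmoid per drug and line, fitted in a mixed model over all curves with the slope shared within a line.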

XMD14-99 = compound: COc1cc(N2CCN(C)CC2)ccc1Nc1nc(N)c(C(=O)c2c(Cl)cccc2Cl)s1 [XMD14-99]; details: top dose 10.24 µM; top dose inferred
Procedure: as §1

FH535 = compound: Cc1cc([N+](=O)[O-])ccc1NS(=O)(=O)c1cc(Cl)ccc1Cl [FH535]; details: top dose 32 µM; top dose inferred
Procedure: as §1

A-443654 = compound: Cc1n[nH]c2ccc(-c3cncc(OC[C@@H](N)Cc4c[nH]c5ccccc45)c3)cc12 [A-443654]; details: top dose 1.024 µM; top dose inferred
Procedure: as §1

Dasatinib = compound: Cc1nc(Nc2ncc(C(=O)Nc3c(C)cccc3Cl)s2)cc(N2CCN(CCO)CC2)n1 [Dasatinib]; details: top dose 1.28 µM
Procedure: as §1

AT-7519 = compound: O=C(NC1CCNCC1)c1n[nH]cc1NC(=O)c1c(Cl)cccc1Cl [AT-7519]; details: top dose 10.24 µM; top dose inferred
Procedure: as §1

Row | Cell Line | AUC (Sorafenib) | IC50 (Sorafenib) [µM] | AUC (XMD14-99) | IC50 (XMD14-99) [µM] | AUC (FH535) | IC50 (FH535) [µM] | AUC (A-443654) | IC50 (A-443654) [µM] | AUC (Dasatinib) | IC50 (Dasatinib) [µM] | AUC (AT-7519) | IC50 (AT-7519) [µM]
1 | RCC10RGB (kidney, adherent) | 0.954 | > 4 | 0.953 | > 10.2 | 0.773 | 28.8 | 0.89 | > 1.02 | 0.737 | 0.758 | 0.897 | > 10.2
2 | NCI-H82 (small cell lung carcinoma, suspension) | 0.969 | > 4 | 0.987 | > 10.2 | 0.77 | 11.5 | 0.644 | 0.157 | 0.988 | > 1.28 | 0.462 | 0.507
3 | NKM-1 (acute myeloid leukaemia, suspension) | 0.177 | 0.0255 | 0.842 | 7.52 | 0.708 | 7.86 | 0.74 | 0.318 | 0.831 | 0.843 | 0.207 | 0.0851
4 | LAN-6 (neuroblastoma, adherent) | 0.91 | > 4 | 0.977 | > 10.2 | 0.783 | 16.2 | 0.891 | > 1.02 | 0.968 | > 1.28 | 0.904 | > 10.2
5 | IST-SL2 (small cell lung carcinoma, suspension) | 0.84 | 2.72 | 0.912 | > 10.2 | 0.715 | 8.06 | 0.667 | 0.185 | 0.704 | 0.299 | 0.51 | 0.681
6 | LS-1034 (large intestine, adherent) | 0.98 | > 4 | 0.954 | > 10.2 | 0.653 |  | 0.819 | 0.659 | 0.986 | > 1.28 | 0.9 | > 10.2
7 | KALS-1 (glioma, adherent) | 0.97 | > 4 | 0.975 | > 10.2 | 0.667 | 6.95 | 0.671 | 0.231 | 0.542 | 0.108 | 0.443 | 0.423
8 | NU-DUL-1 (B-cell lymphoma, suspension) | 0.888 | 2.99 | 0.955 | > 10.2 | 0.671 | 5.37 | 0.619 | 0.127 | 0.276 | 0.0216 | 0.252 | 0.149
9 | JVM-2 (lymphoid neoplasm, suspension) | 0.969 | > 4 | 0.98 | > 10.2 | 0.914 | > 32 | 0.884 | > 1.02 | 0.773 | 0.614 | 0.742 | 3.78
10 | OCI-AML5 (acute myeloid leukaemia, suspension) | 0.706 | 0.899 | 0.904 | > 10.2 | 0.734 | 8.63 | 0.671 | 0.183 | 0.97 | > 1.28 | 0.497 | 0.629
11 | D-283MED (medulloblastoma, adherent) | 0.895 | > 4 | 0.991 | > 10.2 | 0.598 | 3.62 | 0.991 | > 1.02 | 0.948 | > 1.28 | 0.988 | > 10.2
12 | COLO-684 (endometrium, suspension) | 0.93 | > 4 | 0.985 | > 10.2 | 0.755 |  | 0.544 | 0.0857 | 0.947 | > 1.28 | 0.518 | 0.721
13 | NB5 (neuroblastoma, adherent) | 0.96 | > 4 | 0.98 | > 10.2 | 0.768 | 12.2 | 0.833 | 0.674 | 0.762 | 0.463 | 0.884 | > 10.2
14 | SCC-15 (head and neck, adherent) | 0.905 | > 4 | 0.976 | > 10.2 | 0.616 | 4.65 | 0.866 | > 1.02 | 0.873 | > 1.28 | 0.67 | 2.25
15 | COLO-800 (melanoma, adherent) | 0.955 | > 4 | 0.963 | > 10.2 | 0.658 | 5.41 | 0.987 | > 1.02 | 0.962 | > 1.28 | 0.636 | 1.5
16 | TGBC1TKB (biliary tract, adherent) | 0.95 | > 4 | 0.989 | > 10.2 | 0.627 | 4.47 | 0.61 | 0.128 | 0.481 | 0.0709 | 0.978 | > 10.2
17 | ES6 (Ewing sarcoma, adherent) | 0.853 | > 4 | 0.972 | > 10.2 | 0.529 | 2.45 | 0.568 | 0.102 | 0.33 | 0.0239 | 0.471 | 0.523
18 | KINGS-1 (glioma, adherent) | 0.964 | > 4 | 0.976 | > 10.2 | 0.804 | 23.7 | 0.726 | 0.363 | 0.582 | 0.146 | 0.838 | > 10.2

Row | Cell Line | AUC (Sorafenib) | IC50 (Sorafenib) [µM] | AUC (XMD14-99) | IC50 (XMD14-99) [µM] | AUC (FH535) | IC50 (FH535) [µM] | AUC (A-443654) | IC50 (A-443654) [µM] | AUC (Dasatinib) | IC50 (Dasatinib) [µM] | AUC (AT-7519) | IC50 (AT-7519) [µM]
19 | SCC-3 (B-cell lymphoma, suspension) | 0.96 | > 4 | 0.939 | 9.18 | 0.946 | 31 | 0.773 | 0.296 | 0.995 | > 1.28 | 0.33 | 0.248
20 | JJN-3 (haematopoietic neoplasm, suspension) | 0.89 | 3.16 | 0.967 | > 10.2 | 0.69 | 6.09 | 0.798 | 0.389 | 0.922 | > 1.28 | 0.7 | 2.07
21 | LB2241-RCC (kidney, adherent) | 0.844 | 3.36 | 0.982 | > 10.2 | 0.549 | 2.76 | 0.909 | > 1.02 | 0.677 | 0.266 | 0.984 | > 10.2
22 | SF126 (glioma, adherent) | 0.775 | 1.68 | 0.985 | > 10.2 | 0.727 | 9.21 | 0.738 | 0.319 | 0.655 | 0.22 | 0.907 | > 10.2
23 | IMR-5 (neuroblastoma, adherent) | 0.99 | > 4 | 0.878 | 7.6 | 0.777 | 10.8 | 0.745 | 0.28 | 0.94 | > 1.28 | 0.577 | 1
24 | ME-1 (acute myeloid leukaemia, suspension) | 0.907 | > 4 | 0.987 | > 10.2 | 0.811 | 18.5 | 0.911 | > 1.02 | 0.989 | > 1.28 | 0.98 | > 10.2
25 | NCI-H211 (small cell lung carcinoma, adherent) | 0.954 | > 4 | 0.941 | > 10.2 | 0.789 | 13.7 | 0.771 | 0.38 | 0.925 | > 1.28 | 0.359 | 0.265
26 | WSU-NHL (lymphoid neoplasm, suspension) | 0.961 | > 4 | 0.985 | > 10.2 | 0.781 | 11.6 | 0.99 | > 1.02 | 0.99 | > 1.28 | 0.824 | 5.13
27 | REH (B-cell leukaemia, suspension) | 0.966 | > 4 | 0.891 | > 10.2 | 0.763 | 11.1 | 0.915 | > 1.02 | 0.944 | > 1.28 | 0.271 | 0.147
28 | NCI-H128 (small cell lung carcinoma, suspension) | 0.95 | > 4 |  |  |  |  | 0.929 | > 1.02 | 0.966 | > 1.28 |  | 
29 | D-247MG (glioma, adherent) | 0.782 | 2.35 | 0.98 | > 10.2 |  |  | 0.863 | > 1.02 | 0.804 | 0.945 | 0.961 | > 10.2
30 | RL95-2 (endometrium, adherent) | 0.943 | > 4 | 0.983 | > 10.2 |  |  | 0.351 | 0.0249 | 0.456 | 0.0607 | 0.823 | 5.97
31 | D-263MG (glioma, adherent) | 0.921 | > 4 | 0.983 | > 10.2 |  |  | 0.819 | 0.749 | 0.72 | 0.389 | 0.845 | 9.81
32 | NB1 (neuroblastoma, semi-adherent) | 0.855 | 3.73 | 0.901 | > 10.2 | 0.724 | 9.3 | 0.581 | 0.109 | 0.967 | > 1.28 |  | 
33 | CHP-126 (neuroblastoma, suspension) | 0.923 | > 4 | 0.892 | > 10.2 | 0.901 | > 32 | 0.726 | 0.287 | 0.987 | > 1.28 |  | 
34 | GA-10 (Burkitt lymphoma, suspension) | 0.807 | 1.68 |  |  |  |  | 0.445 | 0.0465 | 0.039 | < 0.005 |  | 
35 | KARPAS-231 (B-cell leukaemia, suspension) | 0.888 | 2.73 | 0.981 | > 10.2 | 0.676 | 5.43 | 0.488 | 0.0597 | 0.195 | 0.0134 |  | 
36 | NB17 (neuroblastoma, adherent) | 0.975 | > 4 | 0.847 | 9.25 |  |  | 0.57 | 0.102 | 0.743 | 0.448 | 0.95 | > 10.2
